Source: PubChem BioAssay AID1645887 (National Center for Advancing Translational Sciences (NCATS), 2021)
Values joined by “and” are separate entries in the source; they are usually repeats but may differ in a detail not shown here. Equal values may be shown once. Screen size: about 16,000 compounds; about 40 (0.2%) were called active. About 1% were inconclusive and are not listed. The call rests on the fitted dose curve; in most records, active means well fitted activation curve with a large enough effect; inconclusive means small, poorly fitted or top-dose-only effect, or another doubt; inactive means no such curve, though single readings can be large or run the other way. This is one part of the list.

The compounds below were run against Rap guanine nucleotide exchange factor 4 (Homo sapiens) (UniProt Q8WZA2) (assay: Validation qHTS for agonist of cAMP-regulated guanine nucleotide exchange factor 4 (EPAC2)). Details: EPAC2 Rap1B BODIPY-GDP exchange, fluorescence; activation: active compounds read high.
Summary of the method: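 Fluorescent exchange assay: 100 nM EPAC2 with 250 nM RAP1B-BODIPY-GDP and 50 uM GDP; compound added, 5 min at room temperature, then read (ex 480/em 540 nm) every 5 min for 30 min. Normalized to 6.5 mM cAMP agonist control.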
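Further: exchange makes BODIPY-GDP fluorescence drop when released from Rap1B; series mostly up to about 150 µM.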
On the % scale 0 is the no-effect control and ±100 the full control effect.

Chain of UniProt Q8WZA2 (Q8WZA2 whole entry, looked up): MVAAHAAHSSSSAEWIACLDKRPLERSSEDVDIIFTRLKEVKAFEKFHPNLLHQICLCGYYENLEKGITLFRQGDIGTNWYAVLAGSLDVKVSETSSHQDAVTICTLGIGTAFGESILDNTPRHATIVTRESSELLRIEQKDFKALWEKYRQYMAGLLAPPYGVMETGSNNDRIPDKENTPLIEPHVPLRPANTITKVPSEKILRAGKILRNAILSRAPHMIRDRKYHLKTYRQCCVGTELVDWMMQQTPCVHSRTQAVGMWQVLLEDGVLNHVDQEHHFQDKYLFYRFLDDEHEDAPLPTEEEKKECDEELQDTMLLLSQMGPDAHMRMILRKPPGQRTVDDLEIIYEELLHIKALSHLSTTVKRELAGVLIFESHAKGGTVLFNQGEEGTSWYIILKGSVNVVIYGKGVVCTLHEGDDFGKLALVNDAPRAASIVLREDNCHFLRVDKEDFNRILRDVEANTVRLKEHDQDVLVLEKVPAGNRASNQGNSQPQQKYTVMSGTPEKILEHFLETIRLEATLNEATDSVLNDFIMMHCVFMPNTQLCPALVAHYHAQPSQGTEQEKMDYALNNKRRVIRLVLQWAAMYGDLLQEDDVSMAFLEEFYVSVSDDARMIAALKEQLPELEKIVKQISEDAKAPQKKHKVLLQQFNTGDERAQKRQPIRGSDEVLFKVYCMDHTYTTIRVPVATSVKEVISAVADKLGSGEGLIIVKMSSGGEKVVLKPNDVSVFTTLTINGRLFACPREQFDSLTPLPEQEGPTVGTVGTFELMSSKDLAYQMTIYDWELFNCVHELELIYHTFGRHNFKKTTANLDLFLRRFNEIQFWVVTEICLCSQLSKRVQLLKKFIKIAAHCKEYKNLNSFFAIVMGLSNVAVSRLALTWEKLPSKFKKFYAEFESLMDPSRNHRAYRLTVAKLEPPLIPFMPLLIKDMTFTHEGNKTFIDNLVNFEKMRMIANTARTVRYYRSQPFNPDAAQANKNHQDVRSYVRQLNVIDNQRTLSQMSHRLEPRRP

activation, inactive:
C[C@]12C=CC(=O)C=C1CC[C@H]1[C@@H]3C[C@@H](O)[C@](O)(C(=O)CO)[C@@]3(C)C[C@H](O)[C@@]12F 4.35% and -26.1%
COc1cccc(Nc2ncc3ncc(=O)n(CCc4ccccc4)c3n2)c1 -14.5%
FC(F)(F)c1ccccc1-c1nccc(NCCN2CCOCC2)n1 3.47%
CCN(CC)C(=O)/C(C#N)=C/c1cc(O)c(O)c([N+](=O)[O-])c1 -6.7%
COc1ccc2[nH]cc(CCNc3nc(-c4ccc(C(=O)N(C)C)cc4)nc4ccccc34)c2c1 6.4%
O=C(NCCc1ccccn1)C1CC12CCN(C(=O)c1ccc(F)cc1Cl)CC2 (stereo not drawn) -4.52%
C[C@@H]1O[C@@H](OC[C@H]2O[C@@H](Oc3c(-c4ccc(OCCO)c(OCCO)c4)oc4cc(OCCO)cc(O)c4c3=O)[C@H](O)[C@@H](O)[C@@H]2O)[C@H](O)[C@H](O)[C@H]1O -9.86%
COc1cccc(Cn2c(=O)c(-c3cc(F)cc(F)c3)nc3cnc(N4CCN(C)CC4)nc32)c1 -6.18%
COC(=O)C1CCN(Cc2ccc3c(c2)CN(C(=O)c2cc4cc(F)ccc4[nH]2)CCO3)CC1 -2.38%
NC(N)=NCCC[C@H](NC(=O)[C@@H](N)Cc1ccc(O)cc1)C(=O)O 1.7%
OC/C=C/c1ccc(O)c(O)c1 -15.8%
O=C(C[n+]1c(Cl)cc(Cl)c2ccccc21)c1ccccc1 -12.4%
O=c1cc(-c2cccc(O)c2)oc2ccc(O)cc12 -19.8%
CC(=O)OC1CC2C(C)(C)C(=O)[C@@H]3OC3[C@@]2(C)C2CC[C@]3(C)C(=CC(=O)OC3c3ccoc3)[C@]12C (stereo partly drawn) -2.03%
CCCOC(=O)c1ccccc1O -8.72%
COC(=O)CCC(C)C1CCC2C3C(C[C@H](O)C12C)C1(C)CC[C@@H](O)CC1C[C@H]3O (stereo partly drawn) -10.7%
CCCCC/C=C\C/C=C\C/C=C\C/C=C\CCCC(=O)O[C@@H](CO)COC(=O)CCCCCCCCCCCCCCCCC 0.512%
CC(C)NC(=O)c1cn(C2CCCN(C(=O)c3cc4ccccc4oc3=O)C2)nn1 (stereo not drawn) -4.04%
Cn1cccc1C(=O)N1CCC2(CC1)CCN(c1ccncc1)CC2 -8.14%
CN(C/C=C/c1ccccc1)Cc1cccc2ccccc12 -5.5%
CCCS(=O)(=O)NCc1c(C)ncc2c1CCN(C(=O)c1c(F)ccc(F)c1F)C2 -2.36%
CCCC(=O)NCCc1c(I)[nH]c2ccc(OC)cc12 -16.8%
COc1ccc2c(c1)-c1nc(-n3ncc(C(=O)NCC4CCCN(C)C4)c3C3CC3)ncc1CC2 (stereo not drawn) 1.91%
CN1C(=O)OC(C)(C)C1=O -2.15%
CC(=O)CCCCn1c(=O)c2c(ncn2C)n(C)c1=O -2% and -3.07% and -13.2%
Cc1[nH]c2ccccc2c1/C=C/c1ccnc2ccccc12 -5.14%
COC(=O)C[C@H]1c2cc(C(F)(F)F)ccc2S(=O)(=O)N1Cc1ccc(OC)cc1 -21.2%
C[C@@H]1CC[C@@]2(OC1)O[C@H]1C[C@H]3[C@@H]4CC[C@H]5C[C@@H](O)CC[C@]5(C)[C@H]4CC(=O)[C@]3(C)[C@H]1[C@@H]2C -1.26%
CCC(CCC(C)C1CCC2C3CCC4CC(O)CC[C@@]4(C)C3CC[C@@]12C)C(C)C (stereo partly drawn) -14.6%
Nc1c(CC(=O)O)cccc1C(=O)c1ccc(Br)cc1 -16.9%
CCOC(=O)O[C@]1(C(=O)OCCl)CC[C@@H]2[C@H]3CCC4=CC(=O)C=C[C@]4(C)[C@@H]3[C@@H](O)C[C@@]21C -19.4%
Cc1cc(C(=O)Nc2ccccc2-c2nc(CNC(=O)C3COc4ccccc4O3)c(C)o2)c(C)o1 (stereo not drawn) -13.9%
NC[C@@H]1O[C@H](O[C@H]2[C@H](O)[C@H](O[C@H]3[C@@H](O)[C@H](N)C[C@H](N)[C@H]3O[C@H]3O[C@H](CN)[C@H](O)[C@H](O)[C@H]3N)O[C@@H]2CO)[C@@H](N)[C@@H](O)[C@@H]1O -1.69%
OCCN1CCN(CCCN2c3ccccc3C=Cc3ccccc32)CC1 -13.8% and 16.1% and -41.9%
COCc1c(C(=O)N2CC3CCC2C3)cnn1-c1nccc(-c2ccccc2OC)n1 (stereo not drawn) -11.5%
O=[N+]([O-])c1nccn1CO[C@@H](CO)[C@H](O)CO -20.6%
Cc1ccc(CNc2ncnc3sc(C(=O)N4CCCCC4c4cccnc4)c(C)c23)o1 (stereo not drawn) -29.5%
FC(F)(F)c1ccccc1-c1cncnc1NCc1cccs1 -26.3%
N[C@@H](Cc1cc(CP(=O)(O)O)cc(-c2ccccc2Cl)c1)C(=O)O -10.5%
C[C@H]1O[C@@H](n2cc(F)c(=O)[nH]c2=O)[C@H](O)[C@@H]1O 12%
CCN1CCCC1CNC(=O)c1cnn(-c2nccc(-c3ccccc3OC)n2)c1-c1ccco1 (stereo not drawn) 1.97%
CCCCC[C@H]1CN(CCc2ccccc2)C(=O)[C@@H]1CC(=O)NCc1ccc(OC)cc1 -38.7%
CC(=O)OC1CC[C@]2(C)C(CC(OC(C)=O)[C@@]3(C)C4=CC(=O)OC(c5ccoc5)[C@]4(C)CCC23)C1(C)C (stereo partly drawn) -4.26% and -11.1% and -3.28%
CN(C)c1cccc2ccccc12 -24.1%
CCCCC(CC)COS(=O)(=O)O (stereo not drawn) 12.3%
CC(C)NC[C@H](O)COc1cccc2ccccc12 2.04% [middle of 4 runs]
COc1ccc(C(=O)N2CCC3(CC2)CN(CC(C)C)C3)cc1 -7.79%
CCn1c(-c2ccccc2F)nc2cc(NC(C)=O)cc(C(=O)NC(c3ccccn3)C(F)(F)F)c21 (stereo not drawn) -4.56%
